Assay results reported in PubChem BioAssay AID485294 (National Center for Advancing Translational Sciences (NCATS), 2010).
Hit rate of the full screen: of about 370,000 compounds, about 150 (0.041%) were called active. The shares of active, inactive and inconclusive entries below differ from those in the screen. Calls follow the shape of the dose curve; as a rule, active = well fitted inhibition curve with a large enough effect; inconclusive = small, poorly fitted or top-dose-only effect; inactive = flat fitted curve, though single readings scatter. No potency is given beside an inconclusive call; the fits are too rough.

Target: Beta-lactamase (Escherichia coli (strain K12)) (UniProt P00811)
Chain of UniProt P00811 (P00811 whole entry, looked up): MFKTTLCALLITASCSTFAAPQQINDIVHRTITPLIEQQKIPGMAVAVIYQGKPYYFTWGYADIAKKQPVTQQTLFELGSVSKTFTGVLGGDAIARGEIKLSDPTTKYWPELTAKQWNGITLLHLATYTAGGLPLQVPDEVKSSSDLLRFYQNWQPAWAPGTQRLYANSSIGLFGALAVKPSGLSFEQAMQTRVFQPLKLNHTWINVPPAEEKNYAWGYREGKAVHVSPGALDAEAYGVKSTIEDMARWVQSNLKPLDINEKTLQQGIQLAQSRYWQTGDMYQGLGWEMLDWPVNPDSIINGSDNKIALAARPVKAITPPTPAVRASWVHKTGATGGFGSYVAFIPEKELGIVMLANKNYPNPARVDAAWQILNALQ
Test: qHTS Inhibitors of AmpC Beta-Lactamase (assay with detergent); also: nearly all actives have a fitted effect of over 25% in size;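 as to activity change, negative = inhibition: 0% = no-compound wells and -100% = no-enzyme wells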
Conditions: AmpC hydrolysis of nitrocefin, absorbance 480 nm, 0.01% Triton; activity change, negative = inhibition: at 114 µM (top of the series)
Summary of the method: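 20 mM phosphate pH 7.0 + 0.01% (detergent screen) or 0.0001% Triton X-100; 5.3 nM AmpC reagent; cpd preinc 15 min RT; nitrocefin (800 uM stock) to start; A480 q20 s × 4 min; Activity was normalised to no-enzyme and no-compound control wells.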
Potency is read from the fitted curve at half-maximal effect; tags tell the direction and shape of the fitted curve.

SMILES | Potency | activity change, negative = inhibition
CCOC(=O)CNC(=O)c1sc2nc(C)cc(C)c2c1N | inconclusive [inhibitor, full curve, poor fit] | –
O=C(NCc1ccccn1)Nc1ccccc1F | inconclusive [inhibitor, full curve] | –
COCCN(Cc1nc2ccccc2c(=O)[nH]1)C(=O)COc1cccc(C(C)=O)c1 | inconclusive [inhibitor, full curve, poor fit] | –
CCc1noc(C)c1C(=O)N(Cc1ccccc1)c1c(N)n(CCOC)c(=O)[nH]c1=O | inconclusive [inhibitor, single point] | –
COc1cccc(NC(=O)c2ccnc(N3CCC(C(=O)NCc4ccccc4OC)CC3)c2)c1 | inconclusive [inhibitor, partial curve, poor fit] | –
Cc1nc2ccc(NC(=O)c3ccc(S(=O)(=O)N(C)c4ccccc4)cc3)cc2s1 | inconclusive [inhibitor, full curve] | –
COc1cc(C(=O)ON=C2C=C(C)C(=O)C(C)=C2)cc(OC)c1OC | inconclusive [inhibitor, full curve, poor fit] | –
Cc1cc(C)c(NC(=O)COC(=O)C2=COCCO2)c(Cl)c1 | inconclusive [inhibitor, full curve] | –
N#Cc1ccc(C(=O)Nc2cc(-c3ccccc3)nn2-c2ccccc2)cc1 | inconclusive [inhibitor, partial curve, poor fit] | –
Cc1ccc(CNC(=O)c2ccc(CN3CC(=O)N4CCCCC4C3=O)cc2)cc1 (centres undefined) | – | inactive: 21.3%
CCOc1ccc(N2CC(NC(=O)C3CCCCC3)CC2=O)cc1 (centres undefined) | – | inactive: -1.39%
Cc1cc(/C=C2\C(=O)NC(=O)N(c3ccccc3)C2=O)c(C)n1-c1ccc(C(=O)O)c(Cl)c1 | inconclusive [inhibitor, full curve, poor fit] | –
COc1ccc(/C=N/NC(=O)c2ccoc2C)cc1O | – | inactive: -12.8%
Cc1ccc2nc(-c3cccc(NS(C)(=O)=O)c3)cc(-c3ccccc3)c2c1 | inconclusive [inhibitor, single point] | –
Cc1nnc(SCC(=O)N2CCCC(N3CCN(c4ccc(F)cc4)CC3)C2)o1 (centres undefined) | inconclusive [inhibitor, partial curve] | –
C=CCSc1nnc(COc2ccc(=O)n(-c3ccccc3)n2)n1CC | inconclusive [inhibitor, full curve, poor fit] | –
O=C(Nc1cccc(C(F)(F)F)c1)Nc1ccc2[nH]c(=O)[nH]c2c1 | – | inactive: -0.964%
CCNC(=O)c1ccccc1NC(=O)c1cccc(S(=O)(=O)N2CCOCC2)c1 | inconclusive [inhibitor, partial curve, poor fit] | –
C=CCNC(=S)Nc1sc2c(c1C(N)=O)CCCC2 | – | inactive: -0.886%
CC1(C)OC(=O)C(=NNc2ccc(O)cc2)C(=O)O1 | – | inactive: 3.15%
CC(C)C(OC(=O)c1cc2occc2n1C)C(=O)NCc1ccc2c(c1)OCO2 (centres undefined) | inconclusive [inhibitor, partial curve] | –
COCCn1c(C)c(C)c(S(=O)(=O)c2ccccc2)c1N | – | inactive: 1.78%
Cc1ccc2oc(=O)c3cnn(CC(=O)NCCN4CCOCC4)c3c2c1 | inconclusive [inhibitor, partial curve] | –

SMILES | Potency | activity change, negative = inhibition
Cc1ccc(-n2c3c(c(=O)[nH]c2=O)C(C(F)(F)F)(C(F)(F)F)NC(=O)N3)cc1 | inconclusive [inhibitor, full curve, poor fit] | –
CC1CCN(c2ccc(NC(=O)c3cccnc3)cc2)CC1 | – | inactive: -10.7%
O=C(NCCc1ccccc1)C1CCCN(S(=O)(=O)c2cccs2)C1 (centres undefined) | inconclusive [inhibitor, full curve, poor fit] | –
Cc1cccnc1NC(=O)Cn1nc([N+](=O)[O-])cc1C | inconclusive [inhibitor, full curve, poor fit] | –
CC(=O)O[C@]1(C(C)=O)CC[C@H]2[C@@H]3C[C@H](C)C4=CC(=O)CC[C@]4(C)[C@H]3CC[C@@]21C | inactive | –
CCNC(=O)/N=C1/NC(=O)C(C(C)C)O1 (centres undefined) | inconclusive [inhibitor, partial curve] | –
COc1ccc(C(=O)NCc2ccccn2)cc1 | inconclusive [inhibitor, partial curve, poor fit] | –
O=C(Nc1cccc(-c2cn3ccccc3n2)c1)c1cccc(Cl)c1 | – | inactive: -10.5%
CC(C)Sc1nc2ccsc2c(=O)[nH]1 | inconclusive [inhibitor, single point] | –
COC(=O)CNC(=O)C(C)NC(=O)OCc1ccccc1 (centres undefined) | inconclusive [inhibitor, full curve] | –
Cc1nnc(N2C(=O)c3oc4ccccc4c(=O)c3C2c2ccc(Cl)cc2)s1 (centres undefined) | – | inactive: 0.297%
COc1cc(NC(=S)Nc2ccccn2)cc(OC)c1OC | inconclusive [inhibitor, single point] | –
COc1cc(OC)cc(C(=O)N[C@H](C(=O)NCc2ccc(F)cc2)C(C)C)c1 | inconclusive [inhibitor, full curve, poor fit] | –
COc1ccc(/C=C2/C(=O)NC(=O)N(C3CCCCC3)C2=O)cc1CSc1ccccn1 | inconclusive [inhibitor, partial curve] | –
COc1ccc2nc(-c3ccccc3)nc(SCC(=O)NCC3CCCO3)c2c1 (centres undefined) | inconclusive [inhibitor, full curve, poor fit] | –
O=C(/C=C/c1c(F)cccc1Cl)N1CCc2ccccc2C1 | inconclusive [inhibitor, partial curve, poor fit] | –
COc1ccc(OCC(=O)N2CCN(Cc3cc(=O)n4nc(-c5ccc(OC)cc5)sc4n3)CC2)cc1 | – | inactive: -4.37%
CCOC(=O)/C(C#N)=C/C1=C(N2CCOCC2)CC(C)(C)OC1 | – | inactive: -0.0893%
Cc1cccc(OCC(=O)Nc2cccc3cccnc23)c1C | – | inactive: 20%
CCOC(=O)C1NN=C(C(=O)c2ccccc2)C1c1ccccc1 (centres undefined) | inconclusive [inhibitor, single point] | –
CCCCn1c(=O)n(CC(=O)Nc2c(CC)cccc2CC)c(=O)c2c1nc(CO)n2CCC | inconclusive [inhibitor, full curve, poor fit] | –
CC(=O)c1ccc(NC(=O)c2cc3ccccc3o2)cc1 | – | inactive: -7.59%
N#C/C(=C\c1ccc2c(c1)OCO2)C(N)=S | – | inactive: -6.83%

SMILES | Potency | activity change, negative = inhibition
Cc1cc2nc(-c3cc(N4CCOCC4)ccc3[N+](=O)[O-])ccn2n1 | inconclusive [inhibitor, partial curve] | –
CCn1c(SCC(=O)c2ccc(F)cc2)nnc1-c1ccoc1C | inconclusive [inhibitor, single point] | –
C=C(C)CNC(=S)NNC(=O)c1ccco1 | inconclusive [inhibitor, full curve, poor fit] | –
Cc1cc(C)n(-c2nc(NCC(C)O)c3c4c(sc3n2)CCCC4)n1 (centres undefined) | – | inactive: -1.23%
Cc1cccc(Cn2nc(C(C)(C)C)cc2C(=O)Nc2ccc(F)cc2)c1 | – | inactive: 3.11%
O=C(Nc1ncc(Cc2ccccc2)s1)c1cccs1 | inconclusive [inhibitor, full curve, poor fit] | –
CCOc1ccc(-c2noc(CCC(=O)NCC3CCCO3)n2)cc1OC (centres undefined) | inconclusive [inhibitor, full curve] | –
CC(C)c1nc(Cl)c(C#N)c2c1CCCC2 | inconclusive [inhibitor, full curve, poor fit] | –
O=C(c1c(F)cccc1Cl)N1CCN(c2ccccn2)CC1 | inconclusive [inhibitor, single point] | –
CCN(CC)c1nc(N)c2c(N)nc3c(c2c1C#N)CC(c1ccccc1)O3 (centres undefined) | – | inactive: -4.93%
O=C(CCc1nc2ccccc2c(=O)[nH]1)N1CCN(S(=O)(=O)c2ccccc2Br)CC1 | – | inactive: -9.95%
Cc1ccccc1/C=N/NC(=O)c1cccnc1 | inconclusive [inhibitor, partial curve, poor fit] | –
CCOC(=O)C1CCN(c2cc(=O)n(Cc3ccc(F)cc3)c(=O)[nH]2)CC1 | inconclusive [inhibitor, full curve] | –
C[C@@H](NC(=O)c1ncn(Cc2ccccc2)c1C(=O)N[C@H](C)c1ccccc1)c1ccccc1 | – | inactive: -7.73%
CCN1CCc2c(C#N)c(N3CCCCC3)nc(N3CCOCC3)c2C1 | – | inactive: -3.29%
CCOC(=O)c1cc2c(C)nn(-c3ccccc3)c2s1 | inconclusive [inhibitor, partial curve] | –
COc1ccc(NC(=O)CSc2nnc(-c3cccs3)n2Cc2ccco2)cc1OC | inconclusive [inhibitor, full curve] | –
COCCN(C(=O)c1ccccc1F)c1nnc(-c2ccc(OC)cc2)s1 | inconclusive [inhibitor, full curve, poor fit] | –
O=C(NNC(=S)Nc1ccc(Cl)cc1)c1ccccc1OC(F)F | inconclusive [inhibitor, full curve, poor fit] | –
O=C(Cn1c(=S)[nH]c2ncccc2c1=O)NCCc1ccccc1 | inconclusive [inhibitor, single point] | –
CC(C)CC(c1nnnn1CC1CCCO1)N1CCN(c2nc3ccccc3s2)CC1 (centres undefined) | inconclusive [inhibitor, full curve, poor fit] | –
COc1ccc(-c2nc(N)n(C(=O)c3ccc(C)cc3)n2)cc1 | inconclusive [inhibitor, partial curve] | –
Cc1ccc(/C=C2\C(=O)NC(=S)N(c3ccc(F)cc3)C2=O)s1 | inconclusive [inhibitor, full curve, poor fit] | –
